# In the supplement of paper PMC8728848:
# This is one part of the list.
# B1: AAL (Agrocybe aegerita), Q6WY08 (protein)
# chain: MQGVNIYNISAGTSVDLAAPVTTGDIVTFFSSALNLNAGAGNPNNTTLNLFAENGAYLLHIAFRLQENVIIFNSRQPDGPWLVEQRVSDVANQFAGIDGKAMVTVFDHGDKYQVVINEKTVIQYTKQISGLTLSLSYNATEETSIFSTVVEAVTYTGLALEHHHHHH
# How the values were obtained:
# Assay in all cases: glycan array binding signal (z-score within array); higher = stronger binding
# Details in all cases: glycan notation: IUPAC condensed, linker removed
# [1] = target: Fuc(a1-2)[Gal(a1-3)]Gal(b1-3)GlcNAc(b1-6)GalNAc
# How it was run: (§1)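 Glycan array binding is given as a within-array Z-score, which can be read as non-binding when negative. The arrays, 3228 of them, came from the Consortium for Functional Glycomics database and were retained only where the protein sequence was available. Z-scores were averaged across arrays of the same protein sequence at different concentrations or buffers and across linkers.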
# [2] = target: Fuc(a1-2)[Gal(a1-3)]Gal(b1-4)Glc
# How it was run: as §1
# [3] = target: Fuc(a1-2)[Gal(a1-3)]Gal(b1-4)GlcNAc
# How it was run: as §1
# [4] = target: Fuc(a1-2)[Gal(a1-3)]Gal(b1-4)GlcNAc(b1-2)Man
# How it was run: as §1
# [5] = target: Fuc(a1-2)[Gal(a1-3)]Gal(b1-4)GlcNAc(b1-2)Man(a1-3)[Fuc(a1-2)[Gal(a1-3)]Gal(b1-4)GlcNAc(b1-2)Man(a1-6)]Man(b1-4)GlcNAc(b1-4)GlcNAc
# How it was run: as §1
# [6] = target: Fuc(a1-2)[Gal(a1-3)]Gal(b1-4)GlcNAc(b1-2)Man(a1-3)[Fuc(a1-2)[Gal(a1-3)]Gal(b1-4)GlcNAc(b1-2)Man(a1-6)]Man(b1-4)GlcNAc(b1-4)[Fuc(a1-6)]GlcNAc
# How it was run: as §1
# [7] = target: Fuc(a1-2)[Gal(a1-3)]Gal(b1-4)GlcNAc(b1-3)GalNAc
# How it was run: as §1
# [8] = target: Fuc(a1-2)[Gal(a1-3)]Gal(b1-4)GlcNAc(b1-3)[Fuc(a1-2)[Gal(a1-3)]Gal(b1-4)GlcNAc(b1-6)]GalNAc
# How it was run: as §1
# [9] = target: Fuc(a1-2)[Gal(a1-3)]Gal(b1-4)GlcNAc(b1-6)GalNAc
# How it was run: as §1
# [10] = target: Fuc(a1-2)[Gal(a1-3)]Gal(b1-4)[Fuc(a1-3)]Glc
# How it was run: as §1
# [11] = target: Fuc(a1-2)[Gal(a1-3)]Gal(b1-4)[Fuc(a1-3)]GlcNAc
# How it was run: as §1
# [12] = target: Fuc(a1-2)[Gal(a1-3)]Gal(b1-4)[Fuc(a1-3)]GlcNAc(b1-3)GalNAc
# How it was run: as §1
# [13] = target: Fuc(a1-2)[Gal(a1-4)]Gal(b1-4)GlcNAc
# How it was run: as §1
# [14] = target: Fuc(a1-2)[GalNAc(a1-3)]Gal
# How it was run: as §1
# [15] = target: Fuc(a1-2)[GalNAc(a1-3)]Gal(b1-3)GalNAc(a1-3)[Fuc(a1-2)]Gal(b1-4)GlcNAc
# How it was run: as §1
# [16] = target: Fuc(a1-2)[GalNAc(a1-3)]Gal(b1-3)GalNAc(b1-3)Gal(a1-4)Gal(b1-4)Glc
# How it was run: as §1
# [17] = target: Fuc(a1-2)[GalNAc(a1-3)]Gal(b1-3)GlcNAc
# How it was run: as §1
# [18] = target: Fuc(a1-2)[GalNAc(a1-3)]Gal(b1-3)GlcNAc(b1-2)Man(a1-3)[Fuc(a1-2)[GalNAc(a1-3)]Gal(b1-3)GlcNAc(b1-2)Man(a1-6)]Man(b1-4)GlcNAc(b1-4)GlcNAc
# How it was run: as §1
# [19] = target: Fuc(a1-2)[GalNAc(a1-3)]Gal(b1-3)GlcNAc(b1-2)Man(a1-3)[Fuc(a1-2)[GalNAc(a1-3)]Gal(b1-3)GlcNAc(b1-2)Man(a1-6)]Man(b1-4)GlcNAc(b1-4)[Fuc(a1-6)]GlcNAc
# How it was run: as §1
# [20] = target: Fuc(a1-2)[GalNAc(a1-3)]Gal(b1-3)GlcNAc(b1-3)GalNAc
# How it was run: as §1
# [21] = target: Fuc(a1-2)[GalNAc(a1-3)]Gal(b1-3)GlcNAc(b1-6)GalNAc
# How it was run: as §1
# [22] = target: Fuc(a1-2)[GalNAc(a1-3)]Gal(b1-4)Glc
# How it was run: as §1
# [23] = target: Fuc(a1-2)[GalNAc(a1-3)]Gal(b1-4)GlcNAc
# How it was run: as §1
# [24] = target: Fuc(a1-2)[GalNAc(a1-3)]Gal(b1-4)GlcNAc(b1-2)Man
# How it was run: as §1
# [25] = target: Fuc(a1-2)[GalNAc(a1-3)]Gal(b1-4)GlcNAc(b1-2)Man(a1-3)[Fuc(a1-2)[GalNAc(a1-3)]Gal(b1-4)GlcNAc(b1-2)Man(a1-6)]Man(b1-4)GlcNAc(b1-4)GlcNAc
# How it was run: as §1
# [26] = target: Fuc(a1-2)[GalNAc(a1-3)]Gal(b1-4)GlcNAc(b1-2)Man(a1-3)[Fuc(a1-2)[GalNAc(a1-3)]Gal(b1-4)GlcNAc(b1-2)Man(a1-6)]Man(b1-4)GlcNAc(b1-4)[Fuc(a1-6)]GlcNAc
# How it was run: as §1
# [27] = target: Fuc(a1-2)[GalNAc(a1-3)]Gal(b1-4)GlcNAc(b1-3)Gal(b1-4)GlcNAc
# How it was run: as §1
# [28] = target: Fuc(a1-2)[GalNAc(a1-3)]Gal(b1-4)GlcNAc(b1-3)Gal(b1-4)GlcNAc(b1-3)Gal(b1-4)GlcNAc
# How it was run: as §1
# [29] = target: Fuc(a1-2)[GalNAc(a1-3)]Gal(b1-4)GlcNAc(b1-3)GalNAc
# How it was run: as §1
# [30] = target: Fuc(a1-2)[GalNAc(a1-3)]Gal(b1-4)GlcNAc(b1-3)[Fuc(a1-2)[GalNAc(a1-3)]Gal(b1-4)GlcNAc(b1-6)]GalNAc
# How it was run: as §1
# [31] = target: Fuc(a1-2)[GalNAc(a1-3)]Gal(b1-4)GlcNAc(b1-6)GalNAc
# How it was run: as §1
# [32] = target: Fuc(a1-2)[GalNAc(a1-3)]Gal(b1-4)[Fuc(a1-3)]GlcNAc
# How it was run: as §1
# [33] = target: Fuc(a1-2)[GalNAc(a1-3)]Gal(b1-4)[Fuc(a1-3)]GlcNAc(b1-3)GalNAc
# How it was run: as §1
# [34] = target: Fuc(a1-2)[GalNAc(a1-4)]Gal(b1-4)GlcNAc
# How it was run: as §1
# [35] = target: Fuc(a1-2)[GalNAc(b1-3)]Gal
# How it was run: as §1
# [36] = target: Fuc(a1-3)GlcNAc
# How it was run: as §1
# [37] = target: Fuc(a1-3)[Gal(b1-4)]Glc6S
# How it was run: as §1
# [38] = target: Fuc(a1-3)[Gal(b1-4)]GlcNAc
# How it was run: as §1
# [39] = target: Fuc(a1-3)[Gal(b1-4)]GlcNAc(b1-2)Man
# How it was run: as §1
# [40] = target: Fuc(a1-3)[Gal(b1-4)]GlcNAc(b1-2)Man(a1-3)[Fuc(a1-3)[Gal(b1-4)]GlcNAc(b1-2)Man(a1-6)]Man(b1-4)GlcNAc(b1-4)GlcNAc
# How it was run: as §1
# [41] = target: Fuc(a1-3)[Gal(b1-4)]GlcNAc(b1-2)Man(a1-3)[Fuc(a1-3)[Gal(b1-4)]GlcNAc(b1-2)Man(a1-6)]Man(b1-4)GlcNAc(b1-4)[Fuc(a1-6)]GlcNAc
# How it was run: as §1
# [42] = target: Fuc(a1-3)[Gal(b1-4)]GlcNAc(b1-3)Gal(b1-3)[Fuc(a1-4)]GlcNAc
# How it was run: as §1
# [43] = target: Fuc(a1-3)[Gal(b1-4)]GlcNAc(b1-3)Gal(b1-4)[Fuc(a1-3)]GlcNAc
# How it was run: as §1
# [44] = target: Fuc(a1-3)[Gal(b1-4)]GlcNAc(b1-3)Gal(b1-4)[Fuc(a1-3)]GlcNAc(b1-3)Gal(b1-4)[Fuc(a1-3)]GlcNAc
# How it was run: as §1
# [45] = target: Fuc(a1-3)[Gal(b1-4)]GlcNAc(b1-3)GalNAc
# How it was run: as §1
# [46] = target: Fuc(a1-3)[Gal(b1-4)]GlcNAc(b1-4)Gal(b1-4)[Fuc(a1-3)]GlcNAc
# How it was run: as §1
# [47] = target: Fuc(a1-3)[Gal(b1-4)]GlcNAc(b1-4)Gal(b1-4)[Fuc(a1-3)]GlcNAc(b1-4)Gal(b1-4)[Fuc(a1-3)]GlcNAc
# How it was run: as §1
# [48] = target: Fuc(a1-3)[Gal(b1-4)]GlcNAc(b1-6)GalNAc
# How it was run: as §1
# [49] = target: Fuc(a1-3)[Gal(b1-4)]GlcNAc(b1-6)[Gal(b1-3)GlcNAc(b1-3)]Gal(b1-4)Glc
# How it was run: as §1
# [50] = target: Fuc(a1-3)[Gal(b1-4)]GlcNAc6S
# How it was run: as §1
# [51] = target: Fuc(a1-3)[Gal3S(b1-4)]Glc
# How it was run: as §1
# [52] = target: Fuc(a1-3)[Gal3S(b1-4)]GlcNAc
# How it was run: as §1
# [53] = target: Fuc(a1-3)[Gal3S(b1-4)]GlcNAc6S
# How it was run: as §1
# [54] = target: Fuc(a1-3)[GalNAc(b1-4)]GlcNAc
# How it was run: as §1
# [55] = target: Fuc(a1-3)[GalNAc(b1-4)]GlcNAc6S
# How it was run: as §1
# [56] = target: Fuc(a1-4)GlcNAc
# How it was run: as §1
# [57] = target: Fuc(b1-3)GlcNAc
# How it was run: as §1
# [58] = target: Gal(a1-2)Gal
# How it was run: as §1
# [59] = target: Gal(a1-3)Gal
# How it was run: as §1
# [60] = target: Gal(a1-3)Gal(b1-3)GlcNAc
# How it was run: as §1
binder,measurement,setting,value
B1,glycan array binding signal (z-score),[1],-0.15
same,glycan array binding signal (z-score),[2],-0.15
same,glycan array binding signal (z-score),[3],-0.146
same,glycan array binding signal (z-score),[4],-0.122
same,glycan array binding signal (z-score),[5],-0.072
same,glycan array binding signal (z-score),[6],-0.114
same,glycan array binding signal (z-score),[7],-0.175
same,glycan array binding signal (z-score),[8],-0.138
same,glycan array binding signal (z-score),[9],-0.145
same,glycan array binding signal (z-score),[10],-0.16
same,glycan array binding signal (z-score),[11],-0.137
same,glycan array binding signal (z-score),[12],-0.136
same,glycan array binding signal (z-score),[13],-0.155
same,glycan array binding signal (z-score),[14],-0.138
same,glycan array binding signal (z-score),[15],-0.145
same,glycan array binding signal (z-score),[16],-0.112
same,glycan array binding signal (z-score),[17],-0.152
same,glycan array binding signal (z-score),[18],-0.14
same,glycan array binding signal (z-score),[19],-0.157
same,glycan array binding signal (z-score),[20],-0.154
same,glycan array binding signal (z-score),[21],-0.13
same,glycan array binding signal (z-score),[22],-0.16
same,glycan array binding signal (z-score),[23],-0.153
same,glycan array binding signal (z-score),[24],-0.152
same,glycan array binding signal (z-score),[25],-0.141
same,glycan array binding signal (z-score),[26],-0.157
same,glycan array binding signal (z-score),[27],-0.112
same,glycan array binding signal (z-score),[28],-0.112
same,glycan array binding signal (z-score),[29],-0.144
same,glycan array binding signal (z-score),[30],-0.146
same,glycan array binding signal (z-score),[31],-0.152
same,glycan array binding signal (z-score),[32],-0.152
same,glycan array binding signal (z-score),[33],-0.143
same,glycan array binding signal (z-score),[34],-0.144
same,glycan array binding signal (z-score),[35],-0.154
same,glycan array binding signal (z-score),[36],-0.144
same,glycan array binding signal (z-score),[37],-0.142
same,glycan array binding signal (z-score),[38],-0.142
same,glycan array binding signal (z-score),[39],-0.164
same,glycan array binding signal (z-score),[40],-0.139
same,glycan array binding signal (z-score),[41],-0.121
same,glycan array binding signal (z-score),[42],-0.163
same,glycan array binding signal (z-score),[43],-0.139
same,glycan array binding signal (z-score),[44],-0.144
same,glycan array binding signal (z-score),[45],-0.142
same,glycan array binding signal (z-score),[46],-0.142
same,glycan array binding signal (z-score),[47],-0.16
same,glycan array binding signal (z-score),[48],-0.134
same,glycan array binding signal (z-score),[49],-0.138
same,glycan array binding signal (z-score),[50],-0.133
same,glycan array binding signal (z-score),[51],-0.148
same,glycan array binding signal (z-score),[52],-0.158
same,glycan array binding signal (z-score),[53],-0.138
same,glycan array binding signal (z-score),[54],-0.111
same,glycan array binding signal (z-score),[55],-0.156
same,glycan array binding signal (z-score),[56],-0.157
same,glycan array binding signal (z-score),[57],-0.123
same,glycan array binding signal (z-score),[58],-0.142
same,glycan array binding signal (z-score),[59],-0.139
same,glycan array binding signal (z-score),[60],-0.091
